Several values for one entry are separate records, joined by “and”; a condition that tells them apart may be missing. Equal entries are not always repeated. Inconclusive means that the source gave no clear call. Such entries were picked first, then a sample of the others. For some of these results: Potencies of inconclusive entries are doubtful fits and often do not repeat. A structure can be active in one record and inactive in another. Activity calls are given as the source filed them. Calls come from the whole dose curve; as a rule, active = well fitted curve in the direction sought with a large enough effect in the repeat runs; inconclusive = weak or mixed curves; inactive = no such curve, though single readings can be large; an effect the other way counts as inactive or inconclusive.
How the values were obtained:
[1] = Caspase-3/7 induction in CHO-K1 cells by small molecules, qHTS cell viability counter screen (AID 1346979); note: nearly all actives have a fitted effect of over 35% in size
Method in brief: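 Seeding: 1,500 CHO-K1 cells/well. Rest: 5hr, 37C. Treatment: compounds in DMSO, 16hr. Read: CellTiter-Fluor, 1hr, fluorescence.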

[2] = Caspase-3/7 induction in HepG2 cells by small molecules, qHTS cell viability counter screen (AID 1346981); note: nearly all actives have a fitted effect of over 30% in size
Method in brief: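 In this quantitative HTS counter screen, compounds delivered in DMSO were left on unmodified HepG2 cells for 16 hr at 37 C. Viability was then determined fluorometrically with CellTiter-Fluor, in parallel with caspase-3/7 induction in the same wells.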

[3] = target: Cytochrome P450 2C9 (Homo sapiens) (UniProt P11712); test: Cytochrome P450 Family 2 Subfamily C Member 9 (CYP2C9) small molecule antagonists: luciferase reporter qHTS assay (AID 1671198); note: nearly all actives have a fitted effect of over 50% in size
UniProt P11712, sequence (P11712 whole entry, looked up): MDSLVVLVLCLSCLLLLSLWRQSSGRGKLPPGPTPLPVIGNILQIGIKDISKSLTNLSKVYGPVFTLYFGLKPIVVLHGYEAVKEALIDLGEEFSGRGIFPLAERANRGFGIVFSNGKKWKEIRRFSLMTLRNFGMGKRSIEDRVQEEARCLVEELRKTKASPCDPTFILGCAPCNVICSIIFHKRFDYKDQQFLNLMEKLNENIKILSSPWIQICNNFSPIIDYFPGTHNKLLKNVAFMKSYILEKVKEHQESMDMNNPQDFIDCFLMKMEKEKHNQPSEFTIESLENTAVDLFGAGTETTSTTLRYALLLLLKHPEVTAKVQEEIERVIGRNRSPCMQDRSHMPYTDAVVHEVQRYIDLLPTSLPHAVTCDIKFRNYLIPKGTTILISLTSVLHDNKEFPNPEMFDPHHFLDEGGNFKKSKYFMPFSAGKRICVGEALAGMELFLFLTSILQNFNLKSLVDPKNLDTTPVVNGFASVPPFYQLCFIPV
Method in brief: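 P450-Glo proluciferin substrate with CYP2C9 enzyme; 10 min RT preincubation, then NADPH regeneration 1 h at 37C; luciferin detection reagent 20 min RT, luminescence in relative luminescence units.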

[4] = target: Cytochrome P450 1A2 (Homo sapiens) (UniProt P05177); test: Cytochrome P450 Family 1 Subfamily A Member 2 (CYP1A2) small molecule antagonists: luciferase reporter qHTS assay (AID 1671199); note: nearly all actives have a fitted effect of over 50% in size
UniProt P05177, sequence (P05177 whole entry, looked up): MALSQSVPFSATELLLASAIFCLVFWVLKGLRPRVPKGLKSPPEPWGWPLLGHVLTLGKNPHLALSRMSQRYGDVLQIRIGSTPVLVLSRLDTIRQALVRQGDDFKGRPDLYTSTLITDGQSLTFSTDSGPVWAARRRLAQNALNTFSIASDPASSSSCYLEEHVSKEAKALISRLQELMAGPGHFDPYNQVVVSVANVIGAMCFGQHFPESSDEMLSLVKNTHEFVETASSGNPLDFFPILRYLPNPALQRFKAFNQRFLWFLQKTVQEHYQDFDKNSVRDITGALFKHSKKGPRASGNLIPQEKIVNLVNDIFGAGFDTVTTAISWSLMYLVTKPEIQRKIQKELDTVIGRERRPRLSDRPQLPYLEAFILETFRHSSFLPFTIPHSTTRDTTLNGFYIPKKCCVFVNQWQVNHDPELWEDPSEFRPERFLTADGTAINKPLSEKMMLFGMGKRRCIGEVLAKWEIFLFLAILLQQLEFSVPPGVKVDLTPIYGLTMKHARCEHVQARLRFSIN
Method in brief: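 Steps: enzyme-substrate mix dispensed; test compounds and furafylline control pinned in; 10 min room temperature; NADPH regeneration solution added, 1 h; reaction stopped with luciferin detection reagent; luminescence read after 20 min.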

[5] = target: Nuclear receptor subfamily 1 group I member 2 (Homo sapiens) (UniProt O75469); test: Human pregnane X receptor (PXR) small molecule agonists, qHTS assay (AID 1346982); note: nearly all actives have a fitted effect of over 35% in size
Method in brief: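 Reporter HepG2 cells expressing PXR-Luc are cultured in charcoal-stripped FBS (5%), treated with compounds for 24 hr at 37 C, and assayed by ONE-Glo luminescence after 30 min at room temperature.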

[6] = target: Nuclear receptor subfamily 1 group I member 2 (Rattus norvegicus) (UniProt Q9R1A7); test: Rat pregnane X receptor (rPXR) activation by small molecules, qHTS assay (AID 1346983); details: rPXR luciferase reporter cells, One-Glo luminescence, 24 h; max activation: stronger effect = higher value; note: nearly all actives have a fitted effect of over 20% in size
UniProt Q9R1A7, sequence (Q9R1A7 whole entry, looked up): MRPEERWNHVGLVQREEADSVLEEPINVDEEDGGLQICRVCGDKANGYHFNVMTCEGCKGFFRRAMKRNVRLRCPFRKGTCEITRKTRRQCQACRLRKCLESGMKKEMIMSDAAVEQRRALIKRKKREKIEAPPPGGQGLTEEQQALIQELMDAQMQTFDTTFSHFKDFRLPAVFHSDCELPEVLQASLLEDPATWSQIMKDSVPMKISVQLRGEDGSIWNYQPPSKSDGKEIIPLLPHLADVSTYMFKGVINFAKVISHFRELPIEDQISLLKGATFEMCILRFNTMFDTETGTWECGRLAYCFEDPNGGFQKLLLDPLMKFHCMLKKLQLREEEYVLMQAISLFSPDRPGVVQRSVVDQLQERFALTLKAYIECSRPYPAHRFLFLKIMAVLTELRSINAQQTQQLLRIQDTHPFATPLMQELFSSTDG
Method in brief: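 Cell-based rPXR activation assay: rPXR cells, 2,000 per well, rested 5hr at 37 C, then exposed to compounds in DMSO for 24 hr at 37 C. Luciferase activity read by One-Glo luminescence after 30 min at room temperature.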

[7] = target: Cytochrome P450 2D6 (Homo sapiens) (UniProt P10635); test: Cytochrome P450 Family 2 Subfamily D Member 6 (CYP2D6) small molecule antagonists: luciferase reporter qHTS assay (AID 1671196); note: nearly all actives have a fitted effect of over 50% in size
UniProt P10635, sequence (P10635 whole entry, looked up): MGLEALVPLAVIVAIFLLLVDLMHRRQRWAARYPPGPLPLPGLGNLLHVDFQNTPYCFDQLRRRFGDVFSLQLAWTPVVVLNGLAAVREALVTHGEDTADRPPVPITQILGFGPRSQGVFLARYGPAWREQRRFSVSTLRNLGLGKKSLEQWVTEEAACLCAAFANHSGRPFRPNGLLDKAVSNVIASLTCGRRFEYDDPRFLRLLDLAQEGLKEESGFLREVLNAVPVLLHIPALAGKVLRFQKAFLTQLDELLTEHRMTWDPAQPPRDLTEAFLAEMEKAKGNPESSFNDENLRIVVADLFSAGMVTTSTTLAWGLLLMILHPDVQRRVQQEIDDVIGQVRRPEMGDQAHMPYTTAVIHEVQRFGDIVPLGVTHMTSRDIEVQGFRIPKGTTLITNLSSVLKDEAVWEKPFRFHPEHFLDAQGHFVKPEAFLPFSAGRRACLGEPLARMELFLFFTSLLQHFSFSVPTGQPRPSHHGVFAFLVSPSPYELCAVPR
Method in brief: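 Test chemicals meet CYP2D6 plus proluciferin substrate (10 min, RT); NADPH regenerating solution then drives turnover for 1 h. Detection reagent halts the reaction; luminescence measured after 20 min.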

[8] = Caspase-3/7 induction in CHO-K1 cells by small molecules, qHTS assay (AID 1346980); note: nearly all actives have a fitted effect of over 15% in size
Method in brief: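 Wild-type CHO-K1 cells exposed to compounds for 17hr at 37 C, 5% CO2. Caspase-3/7 activity then measured by Caspase-Glo 3/7 luminescence after 30min at room temperature.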

[9] = target: Voltage-gated inwardly rectifying potassium channel KCNH2 (Homo sapiens) (UniProt Q12809); test: Human Ether-a-go-go-Related Gene (hERG) channel small molecule antagonists: fluorescence cell-based qHTS assay (AID 1671200); note: nearly all actives have a fitted effect of over 50% in size
UniProt Q12809, sequence (Q12809 whole entry, looked up): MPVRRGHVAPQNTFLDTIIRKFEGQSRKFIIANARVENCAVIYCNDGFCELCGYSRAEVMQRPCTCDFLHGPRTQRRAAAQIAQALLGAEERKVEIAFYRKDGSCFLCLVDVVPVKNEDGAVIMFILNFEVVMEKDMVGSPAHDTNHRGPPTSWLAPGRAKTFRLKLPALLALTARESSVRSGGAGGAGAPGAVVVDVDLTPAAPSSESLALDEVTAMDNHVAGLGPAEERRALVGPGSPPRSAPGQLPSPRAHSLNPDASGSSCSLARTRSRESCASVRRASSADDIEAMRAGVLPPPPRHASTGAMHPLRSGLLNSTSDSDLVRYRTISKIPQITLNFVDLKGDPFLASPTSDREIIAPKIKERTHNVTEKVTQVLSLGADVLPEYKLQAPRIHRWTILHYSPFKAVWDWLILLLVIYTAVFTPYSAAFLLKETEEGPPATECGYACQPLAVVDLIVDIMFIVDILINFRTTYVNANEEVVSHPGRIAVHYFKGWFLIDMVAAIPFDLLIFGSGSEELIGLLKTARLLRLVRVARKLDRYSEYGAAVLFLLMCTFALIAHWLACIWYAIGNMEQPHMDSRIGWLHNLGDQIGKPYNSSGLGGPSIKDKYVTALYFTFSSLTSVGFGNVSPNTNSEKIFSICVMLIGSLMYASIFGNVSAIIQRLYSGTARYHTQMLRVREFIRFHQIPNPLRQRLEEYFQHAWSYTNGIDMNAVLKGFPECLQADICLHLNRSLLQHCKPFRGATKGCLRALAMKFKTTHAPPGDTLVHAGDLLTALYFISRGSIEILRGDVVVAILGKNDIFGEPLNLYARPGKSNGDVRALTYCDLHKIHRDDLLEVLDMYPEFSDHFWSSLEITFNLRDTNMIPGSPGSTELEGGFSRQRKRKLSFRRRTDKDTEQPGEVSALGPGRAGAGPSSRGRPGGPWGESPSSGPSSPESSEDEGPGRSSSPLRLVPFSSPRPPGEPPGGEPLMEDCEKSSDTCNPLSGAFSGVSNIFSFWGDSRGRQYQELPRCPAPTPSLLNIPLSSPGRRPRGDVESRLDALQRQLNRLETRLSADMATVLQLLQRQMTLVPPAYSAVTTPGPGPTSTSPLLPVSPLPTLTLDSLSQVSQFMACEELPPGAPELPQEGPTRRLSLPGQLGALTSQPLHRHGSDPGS
Method in brief: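 First, 1000 cells per well are seeded and cultured overnight at 37 C. Next, FluxOR II dye is loaded for 1 h at room temperature, protected from light. After 10 more minutes, stimulus is added and fluorescence is read.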

[10] = target: Cytochrome P450 3A4 (Homo sapiens) (UniProt P08684); test: Cytochrome P450 Family 3 Subfamily A Member 4 (CYP3A4) small molecule antagonists: luciferase reporter qHTS assay (AID 1671201); note: nearly all actives have a fitted effect of over 50% in size
UniProt P08684, sequence (P08684 whole entry, looked up): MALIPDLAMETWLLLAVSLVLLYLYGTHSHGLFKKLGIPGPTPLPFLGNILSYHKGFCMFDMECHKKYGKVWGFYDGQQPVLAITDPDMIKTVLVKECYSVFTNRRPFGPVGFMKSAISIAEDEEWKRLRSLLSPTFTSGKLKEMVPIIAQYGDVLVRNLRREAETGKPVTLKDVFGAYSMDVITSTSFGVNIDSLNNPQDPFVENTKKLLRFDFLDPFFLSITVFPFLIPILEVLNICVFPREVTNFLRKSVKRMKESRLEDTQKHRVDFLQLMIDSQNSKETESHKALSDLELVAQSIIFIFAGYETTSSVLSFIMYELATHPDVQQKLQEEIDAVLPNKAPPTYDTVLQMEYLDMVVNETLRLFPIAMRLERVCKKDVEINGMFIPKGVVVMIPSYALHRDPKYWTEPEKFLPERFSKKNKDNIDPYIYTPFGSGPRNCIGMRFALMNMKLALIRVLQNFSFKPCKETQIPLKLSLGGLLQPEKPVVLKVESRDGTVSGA
Method in brief: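 Enzyme and proluciferin substrate are mixed with test chemicals for 10 min, then NADPH regeneration system drives turnover for 1 h at room temperature. A detection reagent halts the reaction; luminescence after 20 min gives relative activity.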

[11] = target: Cytochrome P450 2C19 (Homo sapiens) (UniProt P33261); test: Cytochrome P450 Family 2 Subfamily C Member 19 (CYP2C19) small molecule antagonists: luciferase reporter qHTS assay (AID 1671197); note: nearly all actives have a fitted effect of over 65% in size
UniProt P33261, sequence (P33261 whole entry, looked up): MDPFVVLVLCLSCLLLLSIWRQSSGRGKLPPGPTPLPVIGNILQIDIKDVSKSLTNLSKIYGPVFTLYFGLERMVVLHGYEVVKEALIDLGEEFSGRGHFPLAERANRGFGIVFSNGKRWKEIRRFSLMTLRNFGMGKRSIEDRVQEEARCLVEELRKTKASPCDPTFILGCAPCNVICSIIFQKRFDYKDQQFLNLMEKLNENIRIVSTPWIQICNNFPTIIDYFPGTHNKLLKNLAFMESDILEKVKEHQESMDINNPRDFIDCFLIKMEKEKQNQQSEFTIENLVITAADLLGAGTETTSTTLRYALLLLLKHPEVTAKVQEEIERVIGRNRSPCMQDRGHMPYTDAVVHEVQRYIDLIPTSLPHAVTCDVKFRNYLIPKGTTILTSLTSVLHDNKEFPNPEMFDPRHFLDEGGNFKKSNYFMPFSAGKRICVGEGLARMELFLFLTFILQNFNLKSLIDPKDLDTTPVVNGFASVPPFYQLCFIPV
Method in brief: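 Compounds were tested on CYP2C19 activity via proluciferin conversion to luciferin. The 37C, 1 h reaction followed NADPH addition; detection reagent stopped it.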

[12] = target: Nuclear receptor subfamily 1 group I member 2 (Homo sapiens) (UniProt O75469); test: Human pregnane X receptor (PXR) activation by small molecules, qHTS assay (AID 1346985); note: nearly all actives have a fitted effect of over 40% in size
Method in brief: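 DPX-2 cells (HepG2 co-transfected with a PXR response element and a CYP3A4-promoter luciferase construct) were seeded at 2,000 per well, rested 5 hr at 37C, then exposed to DMSO-dissolved compounds for 24 hr. Activation was read as luciferase luminescence.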
Potency is the fitted concentration of half-maximal effect; tags give direction and shape of the fitted curve.

SMILES: COc1ccc(OC(F)(F)F)cc1CN[C@H]1CCCN[C@H]1c1ccccc1
- Potency [1]: active: 61.1 µM
- Potency [2]: inconclusive: 61.1 µM [cytotoxic, single point]
- Potency [3]: inconclusive: 89.4 µM [inhibitor, single point]
- Potency [4]: inconclusive: 71 µM [inhibitor, partial curve, poor fit]

SMILES: C#C[C@]1(O)CC[C@H]2[C@@H]3[C@H](C)CC4=C(CCC(=O)C4)[C@H]3CC[C@@]21C
- Potency [1]: inconclusive: 33.5 µM [cytotoxic]
- Potency [5]: inconclusive: 33.5 µM [activator, single point]
- Potency [6]: inconclusive: 15.8 µM [activator, single point]

SMILES: Cc1cc(NS(=O)(=O)c2ccc(N)cc2)no1
- Potency [1]: inconclusive: 8.56 µM [rising, partial curve]

SMILES: CCCCCCCCN
- Potency [1]: inactive
- Potency [5]: active: 27 µM
- Potency [7]: inconclusive: 9.92 µM [inhibitor, full curve]

SMILES: C=CC(=O)OCC1CC2CC1C1CCC(COC(=O)C=C)C21 (stereo not given)
- Potency [1]: active: 48.6 µM
- Potency [8]: inconclusive: 48.6 µM [activator, partial curve]
- Potency [7]: inconclusive: 71 µM [inhibitor, partial curve, poor fit]
- Potency [9]: inconclusive: 54.9 µM [inhibitor, single point]
- Potency [10]: inconclusive: 6.33 µM [inhibitor, full curve]

SMILES: OCC#CCO
- Potency [1]: inconclusive: 69.6 µM [cytotoxic, single point] and inconclusive: 77 µM [cytotoxic, single point]
- Potency [2]: inconclusive: 30.6 µM [cytotoxic, single point]
- Potency [11]: active: 57.2 µM and inactive
- Potency [3]: inconclusive: 45.4 µM [inhibitor, partial curve, poor fit]
- Potency [4]: inconclusive: 64.2 µM [inhibitor, partial curve] and inactive

SMILES: C=C(C)c1ccccc1
- Potency [1]: inactive
- Potency [2]: inactive
- Potency [7]: inconclusive: 71 µM [inhibitor, partial curve]
- Potency [4]: inconclusive: 39.9 µM [inhibitor, partial curve]
- Potency [10]: inconclusive: 89.4 µM [inhibitor, partial curve, poor fit]

SMILES: Oc1c(I)cc(I)c2cccnc12
- Potency [1]: inconclusive: 33.5 µM [cytotoxic, single point]
- Potency [5]: inconclusive: 11.9 µM [activator, single point]

SMILES: O=C(OCc1ccccc1)c1ccc(O)cc1
- Potency [1]: inconclusive: 68.6 µM [cytotoxic]
- Potency [5]: inconclusive: 33.5 µM [activator]

SMILES: CC(C)(C)NC(=O)[C@@H]1CN(Cc2cccnc2)CCN1C[C@@H](O)C[C@@H](Cc1ccccc1)C(=O)N[C@H]1c2ccccc2C[C@H]1O
- Potency [1]: inconclusive: 51 µM [cytotoxic, partial curve, poor fit]

SMILES: CCCCCCNC(=O)n1cc(F)c(=O)[nH]c1=O
- Potency [1]: inconclusive: 13.3 µM [cytotoxic, partial curve]
- Potency [2]: inconclusive: 9.44 µM [cytotoxic, partial curve, poor fit]
- Potency [12]: inconclusive: 4.47 µM [activator, partial curve, poor fit]
- Potency [7]: inconclusive: 19.5 µM [inhibitor, partial curve]
- Potency [4]: inactive
- Potency [9]: inactive

SMILES: CC1(CN2CCC(n3c(=O)[nH]c4ccccc43)CC2)OCc2ccccc2-n2cccc21 (stereo not given)
- Potency [1]: active: 29.8 µM
- Potency [2]: inconclusive: 33.5 µM [cytotoxic, single point]
- Potency [6]: inconclusive: 15.8 µM [activator, partial curve, poor fit]

SMILES: Nc1ccc(O)cc1
- Potency [1]: inconclusive: 33.5 µM [cytotoxic, single point]
- Potency [8]: inconclusive: 28.4 µM [activator]
- Potency [2]: active: 56.6 µM
- Potency [5]: inconclusive: 71.2 µM [activator, single point]
- Potency [7]: inconclusive: 12.3 µM [inhibitor, full curve]
- Potency [10]: inconclusive: 30.9 µM [inhibitor, partial curve]

SMILES: C=C1CC[C@H](O)C/C1=C\C=C1/CCC[C@]2(C)[C@@H]([C@H](C)CCCC(C)C)CC[C@@H]12
- Potency [1]: active: 48.1 µM
- Potency [8]: inconclusive: 68 µM [activator, single point]
- Potency [12]: inconclusive: 28.2 µM [activator, single point]
- Potency [4]: inconclusive: 39.6 µM [inhibitor, partial curve]

SMILES: CC1CCCCN1CCCOC(=O)c1ccc(OC2CCCCC2)cc1 (stereo not given)
- Potency [1]: inconclusive: 33.5 µM [cytotoxic, single point]
- Potency [5]: inconclusive: 33.5 µM [activator, single point]
- Potency [7]: active: 15.5 µM
- Potency [11]: inactive
- Potency [9]: active: 2.68 µM
